# In the supplement of paper PMC4166925:
# ± gives the standard deviation of the averaged measurements. Over roughly 33,000 sequences, “E-score (dimensionless, -0.5 to 0.5)” has its median near -0.046; the highest 2% begin near 0.36. Some of the results follow.
# Tested on: T1, SpTbr T-box DNA-binding domain (GST fusion)
# T1 sequence: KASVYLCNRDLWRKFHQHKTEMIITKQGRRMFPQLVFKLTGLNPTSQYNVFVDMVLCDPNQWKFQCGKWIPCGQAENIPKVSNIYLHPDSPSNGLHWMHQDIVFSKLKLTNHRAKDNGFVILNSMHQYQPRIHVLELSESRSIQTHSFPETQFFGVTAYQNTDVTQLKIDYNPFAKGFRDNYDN
# Experiment: PBM E-score of 8-mer (E-score (dimensionless, -0.5 to 0.5)); Tbr is Tbrain of the sea star Patiria miniata (Pm) or the sea urchin Strongylocentrotus purpuratus (Sp); higher = stronger binding preference; most listed sequences are background and not binding sites
# Settings: the construct has about 5 more residues each side
# How it was run: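 Using the Universal PBM Analysis Suite, every ungapped 8-mer received an enrichment E-score averaged over duplicate arrays. Probe intensities came from double-stranded Universal Agilent oligonucleotide arrays incubated with 200 nM GST-fused Tbr T-box DNA-binding domain in PBS (pH 7.5). That protein was expressed in BL21 E. coli at 20 °C and purified by glutathione affinity chromatography.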
row,Sequence,PBM E-score of 8-mer
1,AACGTCAT,-0.103 ± 0.045
2,AGCATCAA,-0.083 ± 0.055
3,ACGTCCGG,-0.246 ± 0.021
4,GGGCTTTA,-0.244 ± 0.044
5,CACTTGTC,0.375 ± 0.012
6,ACGCTGAA,-0.105 ± 0.01
7,GTCCAACA,0.165 ± 0.011
8,CTTATGGC,-0.0704 ± 0.031
9,AAGACCGT,-0.145 ± 0.015
10,CTAGCCGA,0.0301 ± 0.045
11,GCGCCTCC,0.196 ± 0.018
12,TAACTCCA,-0.0619 ± 0.015
13,AGTCCCGA,-0.224 ± 0.0093
14,CTCGCTGC,0.0382 ± 0.037
15,ATGGGATG,-0.035 ± 0.011
16,ACCTAAGG,0.0643 ± 0.025
17,ATTTTCGC,0.223 ± 0.0094
18,CTGGCACA,0.1856 ± 0.00035
19,CAAATGAC,-0.0483 ± 0.02
20,AATAGCAC,0.316 ± 0.049
21,GCGTAGTA,-0.0459 ± 0.072
22,AACTCAAC,-0.0393 ± 0.04

row,Sequence,PBM E-score of 8-mer
1,GCCAGGCC,-0.217 ± 0.036
2,GTCATCAA,0.0423 ± 0.0043
3,AAGCGAGA,0.0545 ± 0.065
4,ACCTCGGA,0.114 ± 0.011
5,GCGGCACA,0.213 ± 0.0051
6,GACCCGGC,-0.242 ± 0.074
7,CACGTTGA,0.248 ± 0.059
8,GGTTCGGA,-0.2634 ± 0.0013
9,AGCAAACG,-0.0137 ± 0.0085
10,ATGAGCGA,0.118 ± 0.036
11,ATTTAACC,-0.172 ± 0.021
12,GTTTAGCA,0.102 ± 0.11
13,TCTACAGA,-0.171 ± 0.065
14,AACAACTA,0.176 ± 0.076
15,TCCAGCGA,-0.0842 ± 0.0072
16,CGAGGAGC,-0.0753 ± 0.036
17,GCAACTAC,-0.0321 ± 0.038
18,CACGGGCC,-0.108 ± 0.01
19,CACGACTA,0.106 ± 0.022
20,GCTAGCCA,-0.0612 ± 0.093
21,GTTACCGA,0.213 ± 0.0097
22,CTCTATGC,-0.0358 ± 0.11

row,Sequence,PBM E-score of 8-mer
1,TAGAACAA,-0.0724 ± 0.0032
2,CGCGTATA,-0.016 ± 0.053
3,CGGATTAA,-0.00536 ± 0.027
4,GTCCGAAC,-0.119 ± 0.024
5,AGGGGCAC,-0.188 ± 0.016
6,CACAAACG,0.1235 ± 0.00028
7,CCGTGGAC,0.0413 ± 0.044
8,AGTGGACA,0.0111 ± 0.012
9,CGGGATAA,0.022 ± 0.00066
10,AGTTCAGG,-0.194 ± 0.015
11,CACTAGAA,0.0999 ± 0.028
12,CGAATTTC,0.0232 ± 0.088
13,CACCTCCG,0.4516 ± 0.0039
14,ATCTAGCG,0.0233 ± 0.056
15,CCTTTGGC,0.0256 ± 0.0067
16,CACGACAC,0.276 ± 0.033
17,CCACAAGA,8e-05 ± 0.012
18,CCGGCGGC,-0.0887 ± 0.055
19,ATAGCATG,-0.0688 ± 0.022
20,GGATAAAA,-0.201 ± 0.0081
21,AGACACAC,0.233 ± 0.011
22,CGAACCCC,-0.048 ± 0.073

row,Sequence,PBM E-score of 8-mer
1,ATGTTGTC,0.236 ± 0.046
2,AGGTGCGC,0.3101 ± 0.0015
3,CCAACGAA,-0.0449 ± 0.018
4,CTGAACCC,-0.1951 ± 0.00092
5,AAGTAACC,-0.0857 ± 0.11
6,GCGACAAC,0.369 ± 0.007
7,GTACTCCA,-0.205 ± 0.093
8,GAATTCTA,-0.289 ± 0.039
9,GAAGTTCC,-0.206 ± 0.053
10,TAGACCGA,-0.124 ± 0.012
11,CCTCATTC,0.0262 ± 0.016
12,GCCTAATA,-0.199 ± 0.023
13,ATGCGTCA,0.229 ± 0.014
14,ATCGTATG,0.0651 ± 0.053
15,CTATAAAA,-0.183 ± 0.16
16,AGTGGGAT,0.00508 ± 0.037
17,CCTTCCCA,-0.193 ± 0.045
18,AAGACCCA,-0.179 ± 0.0091
19,CTAATACA,-0.0313 ± 0.019
20,AAATAACA,0.105 ± 0.097
